This note sets out measurements from ChEMBL document CHEMBL3044822, “Carpropamid, a New Fungicide for Rice Blast Control” (1998).

Activity calls are given as the source filed them. No cut-off for these calls is given here.

This test has as its system Pyricularia oryzae. Briefly: Fungicidal activity against Magnaporthe oryzae assessed as melanin synthesis inhibition.
On to `C[C@@H](NC(=O)C1(C)C(C)(C)C1(Cl)Cl)c1ccc(Br)cc1` (stereo in doubt; 17(Rd)), for which the inhibition result is “Active”.
The entry for `C[C@H](NC(=O)C1(C)C(C)(C)C1(Cl)Cl)c1ccc(Br)cc1` (stereo in doubt; 17(Sd+Sl)) is “inactive”; for `C[C@@H](NC(=O)C1(C)C(C)(C)C1(Cl)Cl)c1ccc(Br)cc1` (stereo in doubt; 17(Rd+Rl)) it is “Active”; for `CC(NC(=O)C1(C)C(C)(C)C1(Cl)Cl)c1ccc(Br)cc1` (centres undefined) it is “Active”.
Regarding `C[C@@H](NC(=O)C1(C)C(C)(C)C1(Cl)Cl)c1ccc(Br)cc1` (stereo in doubt; 17(Rl)), the inhibition entry is “Active”.
The entry for `C[C@H](NC(=O)C1(C)C(C)(C)C1(Cl)Cl)c1ccc(Br)cc1` (stereo in doubt; 17(Sd)) is “inactive”; for `CC[C@]1(C(=O)N[C@H](C)c2ccc(Cl)cc2)[C@H](C)C1(Cl)Cl` [trans-Carpropamid] it is “Active”; for `C[C@H](NC(=O)C1(C)C(C)(C)C1(Cl)Cl)c1ccc(Br)cc1` (stereo in doubt; 17(Sl)) it is “inactive”.
The entry for `CC[C@]1(C(=O)NC(C)c2ccc(Cl)cc2)[C@H](C)C1(Cl)Cl` (mixture of isomers) is “Active”.
